Experimental findings from PubChem BioAssay AID360 (National Center for Advancing Translational Sciences (NCATS), 2006) are described below.

Molecules are shown by their SMILES. The campaign covered roughly 48,000 compounds. About 550 (1.1%) were called active. Roughly 4% stayed inconclusive and do not appear here. No stated cut-off is given here; in the data, active means potency below about 15 µM; inconclusive means mostly about 16 µM to 33 µM; inactive means weaker than that. The list shows a part of the results.
Potency means the concentration at half of the fitted maximal effect.

Sequence of UniProt P04062 (P04062 whole entry, looked up): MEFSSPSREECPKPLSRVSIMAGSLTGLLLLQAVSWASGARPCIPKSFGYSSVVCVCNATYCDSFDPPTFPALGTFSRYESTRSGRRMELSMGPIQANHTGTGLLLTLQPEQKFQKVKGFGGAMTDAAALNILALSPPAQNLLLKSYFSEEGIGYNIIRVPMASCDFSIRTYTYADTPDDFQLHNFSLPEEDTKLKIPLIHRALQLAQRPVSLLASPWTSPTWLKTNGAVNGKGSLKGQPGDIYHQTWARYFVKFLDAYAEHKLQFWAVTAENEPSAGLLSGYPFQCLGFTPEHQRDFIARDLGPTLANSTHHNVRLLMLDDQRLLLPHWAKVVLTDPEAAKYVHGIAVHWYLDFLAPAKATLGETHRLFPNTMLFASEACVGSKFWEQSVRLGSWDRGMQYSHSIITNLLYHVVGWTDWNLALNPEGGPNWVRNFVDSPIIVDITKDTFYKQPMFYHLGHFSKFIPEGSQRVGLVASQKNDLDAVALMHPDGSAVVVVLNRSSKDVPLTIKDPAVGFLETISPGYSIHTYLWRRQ

The target in the experiment is Lysosomal acid glucosylceramidase (Homo sapiens) (UniProt P04062). Nature of the experiment: Glucocerebrosidase.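 Further: the screen sought inhibitors.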 As to conditions: purified enzyme, resorufin glucoside fluorescence (screen aimed at inhibitors), 20 min; series mostly up to 77 µM. The method in brief:
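Wild-type enzyme at 0.2 nM final in 50mM citric acid/KH2PO4, 10mM sodium taurocholate, 0.01% tween-20, pH 5.9, with resorufin beta-D-glucopyranoside at 30 uM final. Compounds titrated, 20 min at RT, red fluorescence read; AC50 from titration.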
For `CCc1cc2c(N3CCN(c4nnc(CC)s4)CC3)ncnc2s1`, the Potency is inactive: > 76.9 µM. As for `Cc1ccc(C(=O)OCC(=O)c2ccc(Cl)s2)s1`, the Potency is inactive: > 76.9 µM. Regarding `Cc1cc2c(c(=O)n1Cc1cccnc1)C(c1ccc(F)cc1)C(C#N)=C(N)O2` (stereo unspecified), the Potency is inactive: > 76.9 µM. As for `O=C(c1cn(-c2ccccc2)nc1-c1ccccc1)N1CCOCC1`, the Potency is inactive: > 76.9 µM. On to `Cn1c(Br)nc2c1c(=O)n(CC(O)COc1ccccc1)c(=O)n2C` (stereo unspecified), for which the Potency was inactive: > 76.9 µM. `CC(C)c1c(O)nc(SCc2ccccc2)[nH]c1=O`: the Potency is inactive: > 76.9 µM. The result for `O=C(CN1C(=O)NC2(CCCCCC2)C1=O)N1CCC(Cc2ccccc2)CC1` reads “inactive”; that for `Cc1cccc(N2CCN(C(=O)CCNC(=O)Cn3ccc4ccccc4c3=O)CC2)c1C`, inactive: > 76.9 µM. Take `O=c1[nH]n(-c2ccccn2)c(=O)c2ccccc12`: the Potency was inactive: > 76.9 µM. On to `CC(=O)OCC1OC(n2ccc(=O)[nH]c2=O)C(O)C1O` (stereo unspecified), for which the Potency is inactive: > 76.9 µM. As for `CC1CC(C)CN(C(=O)CCCn2c(=S)[nH]c3ccccc3c2=O)C1` (stereo unspecified), the entry is “inactive”. On to `COc1ccc(-c2cc3nc(C)cc(NCCO)n3n2)cc1`, for which the Potency was inactive: > 76.9 µM. Consider `O=C(Cc1cccs1)NCc1ccc(F)cc1`, for which the Potency is inactive: > 76.9 µM. On to `O=c1c2oc3ccccc3c2ncn1Cc1ccccc1F`, for which the Potency is inactive: > 76.9 µM. As for `CC(=O)Nc1nc2n(n1)C(c1ccc(Cl)cc1)C=C(C)N2` (stereo unspecified), the figure is inactive: > 76.9 µM; as for `COc1ccc(CNC(=O)C2COc3ccccc3O2)c(OC)c1` (stereo unspecified), inactive: > 76.9 µM. The result for `COc1ccc(C)cc1S(=O)(=O)Nc1cccnc1` reads inactive: > 76.9 µM; that for `CC1(C)CC(=O)c2cc(C(=O)Nn3cnnc3)c(=O)n(-c3ccccc3)c2C1`, inactive: > 76.9 µM. Take `CCCOC(=O)CCc1n[nH]c(=O)[nH]c1=O`: the Potency is inactive: > 76.9 µM.

`c1ccc2c(c1)CCCn1nnnc1-2`: the Potency was inactive: > 76.9 µM. Take `COc1ccc(-c2nnc(SCC(=O)Nc3cc(C)on3)n2N)cc1OC`: the Potency is inactive: > 76.9 µM.

Consider `O=C(NCc1nc2ccccc2[nH]1)c1ccc(Cl)c(S(=O)(=O)N2CCCC2)c1`, for which the Potency was inactive: > 76.9 µM.

Take `COc1cccc(-c2nnc(NC(=O)c3ccc(S(=O)(=O)N4CC(C)OC(C)C4)cc3)o2)c1` (stereo unspecified): the Potency is inactive: > 76.9 µM. For the compound `Cc1ccc(N2C(=O)c3n[nH]c(C)c3C2c2ccco2)cc1` (stereo unspecified), the Potency was inactive: > 76.9 µM.

Turning to `Cc1cccc(-c2noc(CCC(=O)Nc3ccccc3)n2)c1`, the Potency was inactive: > 76.9 µM.

For `CNS(=O)(=O)c1cc(OCC(N)=O)c(C)cc1Cl`, the Potency is inactive: > 76.9 µM.
